According to the supplement of paper PMC6089552:
Hit rate of the full screen: of about 3,200 compounds, about 300 (9.4%) showed activity. Only a part is listed here, and it is no random draw.

Test system: A673/TR/shEF
Assay: cell viability (LOESS-normalised, relative to median of negative controls) (log2 ratio); higher = more viable cells (less compound effect), active = hit call of the paper (over 3 MAD below the median)
Settings: treatment time: 72 h
Method in brief: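 Viability of A673/TR/shEF Ewing sarcoma cells was determined by CellTiter-Glo luminescence. The cells, at 1,500 per well in 384-well plates, were grown with or without doxycycline from 24 h before compound addition to switch on EWS-FLI1 shRNA knockdown, then exposed for three days to library compounds at two or more concentrations or to DMSO controls. Signals were LOESS-corrected plate by plate, normalised to the negative-control median and log2-transformed.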

[1] = 0.25 µM, library screen: screen1, EWS-FLI1 expression: high (no doxycycline)
[2] = 0.25 µM, library screen: screen1, EWS-FLI1 expression: low (doxycycline-induced shRNA knockdown)
[3] = 2.5 µM, library screen: screen1, EWS-FLI1 expression: high (no doxycycline)
[4] = 2.5 µM, library screen: screen1, EWS-FLI1 expression: low (doxycycline-induced shRNA knockdown)
[5] = 0.25 µM, library screen: screen2, EWS-FLI1 expression: high (no doxycycline)
[6] = 0.25 µM, library screen: screen2, EWS-FLI1 expression: low (doxycycline-induced shRNA knockdown)
[7] = 2.5 µM, library screen: screen2, EWS-FLI1 expression: high (no doxycycline)
[8] = 2.5 µM, library screen: screen2, EWS-FLI1 expression: low (doxycycline-induced shRNA knockdown)
[9] = 0.103 µM, library screen: screen3, EWS-FLI1 expression: high (no doxycycline)
[10] = 0.103 µM, library screen: screen3, EWS-FLI1 expression: low (doxycycline-induced shRNA knockdown)
[11] = 0.308 µM, library screen: screen3, EWS-FLI1 expression: high (no doxycycline)
[12] = 0.308 µM, library screen: screen3, EWS-FLI1 expression: low (doxycycline-induced shRNA knockdown)
[13] = 0.926 µM, library screen: screen3, EWS-FLI1 expression: high (no doxycycline)
[14] = 0.926 µM, library screen: screen3, EWS-FLI1 expression: low (doxycycline-induced shRNA knockdown)
[15] = 2.8 µM, library screen: screen3, EWS-FLI1 expression: high (no doxycycline)
[16] = 2.8 µM, library screen: screen3, EWS-FLI1 expression: low (doxycycline-induced shRNA knockdown)
[17] = 8.3 µM, library screen: screen3, EWS-FLI1 expression: high (no doxycycline)
[18] = 8.3 µM, library screen: screen3, EWS-FLI1 expression: low (doxycycline-induced shRNA knockdown)
[19] = 25 µM, library screen: screen3, EWS-FLI1 expression: high (no doxycycline)
[20] = 25 µM, library screen: screen3, EWS-FLI1 expression: low (doxycycline-induced shRNA knockdown)
[21] = 25 µM, library screen: screen1, EWS-FLI1 expression: high (no doxycycline)

Measured: cell viability (log2)

CC(=O)Oc1ccc(-c2coc3cc(OC(C)=O)ccc3c2=O)cc1
inactive: [1] 0.152 | [2] 0.0716 | [3] 0.0709 | [4] 0.0455

CCN(c1nc(N)c(C(=O)N=C(N)N)nc1Cl)C(C)C
inactive: [5] 0.177 | [6] 0.139 | [7] 0.148 | [8] 0.132

c1ccc(CN(CC2=NCCN2)c2ccccc2)cc1
inactive: [1] 0.132 | [2] 0.106 | [3] 0.116 | [4] 0.19

CN(C)CC/C=C1/c2ccccc2COc2ccc(CC(=O)O)cc21
inactive: [9] 0.0714 | [10] 0.0905 | [11] 0.0643 | [12] 0.117 | [13] 0.113 | [14] 0.0761 | [15] 0.0348 | [16] 0.0276 | [17] 0.115 | [18] 0.0583 | [19] 0.106 | [20] 0.116

O=C(O)C1=CCCN(CCON=C(c2ccccc2)c2ccccc2)C1
inactive: [5] 0.0519 | [6] 0.0703 | [7] 0.0659 | [8] 0.119

Cn1c(=O)[nH]c2nc[nH]c2c1=O
inactive: [1] 0.0262 | [2] 0.135 | [3] 0.103 | [4] 0.0812

CC12CCC3c4ccc(OCc5ccccc5)cc4CCC3C1C[C@@H](O)[C@@H]2O (stereo partly drawn)
inactive: [1] 0.0858 | [2] 0.0634 | [3] 0.147 | [4] 0.17

O=C(/C=C/c1ccc(O)c(O)c1)O[C@@H]1C[C@](O)(C(=O)O)C[C@@H](O)[C@H]1O
inactive: [1] 0.0547 | [2] 0.0452 | [3] 0.128 | [4] 0.0579

C#CCn1c(=O)c2c(ncn2C)n(C)c1=O
inactive: [5] 0.157 | [6] 0.0727 | [7] 0.134 | [8] 0.0583

COc1cc(O)ccc1C(C)=O
inactive: [1] 0.0494 | [2] 0.0757 | [3] 0.0776 | [4] 0.0818

CC(=O)OCC(=O)[C@H]1CC[C@H]2[C@@H]3CCC4=CC(=O)CC[C@]4(C)[C@H]3CC[C@]12C
inactive: [1] 0.0794 | [2] 0.132 | [3] 0.162 | [4] 0.198

Cc1cc(=O)c2c(o1)-c1c(cc(O)c(O)c1C(=O)O)OC2
inactive: [1] 0.0145 | [2] 0.0255 | [3] 0.0451 | [4] 0.0692

C#C[C@]1(O)CC[C@H]2[C@@H]3CCC4=CC(=O)CC[C@@H]4[C@H]3CC[C@@]21CC
inactive: [9] 0.0798 | [10] -0.0216 | [1] 0.0123 | [2] 0.0749 | [11] 0.127 | [12] 0.0715 | [13] 0.122 | [14] 0.0282 | [3] 0.115 | [4] 0.14 | [15] 0.047 | [16] 0.104 | [17] 0.0644 | [18] 0.0886 | [19] 0.129 | [20] 0.111

N#C/C(=C\c1ccc(O)c(O)c1)C(=O)NCc1ccccc1
active: [3] -0.573 | [4] -0.157 | [21] -0.423

CC(CN(C)C)CN1c2ccccc2Sc2ccccc21 (stereo not drawn)
inactive: [1] 0.0891 | [2] 0.0723 | [3] 0.192 | [4] 0.305

CCCCC/C=C\C/C=C\C/C=C\C/C=C\CCCC(=O)O
inactive: [1] 0.053 | [2] 0.0191 | [3] 0.0785 | [4] 0.0823

CCCCCCCCCCCCCCCC(=O)C1=C(O)[C@@H](CO)OC1=O
inactive: 0.025 µM, library screen: screen1, EWS-FLI1 expression: high (no doxycycline) 0.213 | 0.025 µM, library screen: screen1, EWS-FLI1 expression: low (doxycycline-induced shRNA knockdown) 0.0909 | [1] 0.235 | [2] 0.112 | [4] 0.0271 | 25 µM, library screen: screen1, EWS-FLI1 expression: low (doxycycline-induced shRNA knockdown) -0.135
active: [3] -0.362 | [21] -0.293

CC[C@@H](CO)NCCN[C@@H](CC)CO
inactive: [1] 0.144 | [2] 0.0523 | [3] 0.138 | [4] 0.0729

CC(N=C(NC#N)Nc1ccncc1)C(C)(C)C (stereo not drawn)
inactive: [1] 0.0731 | [2] 0.0325 | [5] 0.123 | [6] 0.0828 | [3] 0.0614 | [4] 0.104 | [7] 0.0499 | [8] 0.131

CCC(C(=O)C(C)C(O)C(C)CCc1ccc(C)c(O)c1C(=O)O)C1OC(CC)(C2CCC(O)(CC)C(C)O2)CC1C (stereo not drawn)
inactive: [1] 0.0934 | [2] 0.0794 | [3] -0.023 | [4] 0.0924

CC[N+](CC)(CC)CC(=O)Nc1c(C)cccc1C
inactive: [5] 0.105 | [6] 0.169 | [7] 0.0372 | [8] 0.0518

COc1cc(-c2ccc(=O)[nH]n2)ccc1OC(F)F
inactive: [5] 0.112 | [6] 0.0688 | [7] 0.219 | [8] 0.00894

COC(=O)[C@@H]1OC(=O)[C@H]2O[C@@]23[C@@]1(C)CCC1[C@@]2(C)CCC(=O)C(C)(C)C2C[C@@H](OC(C)=O)[C@]13C (stereo partly drawn)
inactive: [1] -0.0129 | [2] 0.0628 | [3] 0.0436 | [4] 0.0683

O=c1[nH]c(=O)n([C@H]2C[C@H](O)[C@@H](CO)O2)cc1Br
inactive: [5] 0.238 | [6] 0.0517 | [7] 0.037 | [8] 0.0646

CCCCC1(COC(=O)CCC(=O)O)C(=O)N(c2ccccc2)N(c2ccccc2)C1=O
inactive: [1] 0.0732 | [2] 0.0441 | [3] 0.13 | [4] 0.0685

COc1cc(NC(C)CCCN)c2ncccc2c1 (stereo not drawn)
active: 25 µM, library screen: screen2, EWS-FLI1 expression: high (no doxycycline) -0.632
inactive: 0.025 µM, library screen: screen2, EWS-FLI1 expression: high (no doxycycline) 0.0561 | 0.025 µM, library screen: screen2, EWS-FLI1 expression: low (doxycycline-induced shRNA knockdown) -0.00137 | [1] 0.054 | [2] 0.199 | [5] 0.0891 | [6] 0.0483 | [3] 0.127 | [4] 0.305 | [7] 0.104 | [8] -0.00544 | 25 µM, library screen: screen2, EWS-FLI1 expression: low (doxycycline-induced shRNA knockdown) -0.0311

CCCCNc1c(C(=O)OCC)c(C)nc2c1cnn2CC
inactive: [5] 0.228 | [6] 0.0905 | [7] 0.218 | [8] 0.0802
